± gives the standard deviation of the averaged measurements. Growth of baker's yeast expressing single-residue variants of Pneumocystis jirovecii dihydrofolate reductase in 8.8 or 44 µM methotrexate (about 75% and 90% inhibition of the wild type). Selection coefficient per generation; 0 = like wild type, above 0 = less sensitive, below 0 = more sensitive or loss of function. No active / inactive call per row; the paper calls resistant above 0.220 (8.8 µM) or 0.243 (44 µM) together with a significance test. At 44 µM about 15% of codons end with one read or none, so the lowest values are floors (replicate rank correlation 0.74; 0.94 at 8.8 µM).
B1: UniProt A0EPZ9; numbered along this chain (parent)
chain: MDWQKSLTLIVALTLSRGIGLKNDLPWKLKSDMMFFSRVTSGLLVTRSTGQMNVVLMGRKTWESLPAHSRPLKNRINVVISRQEVLDLGGGAYHARSLDDALALLSQIYDSTSKIQLNRVFVIGGGELCKAAMEHSRLNRIIATVIHNEVDCDVFFPIDFRSSQSCLPWRKQDHSVLEAWVGSKVPQGKINENGFIYEFEMWIRDI

Variants of: B1
Assay: selection coefficient against synonymous wild-type codons (log2 per generation); higher = faster growth than wild type
Settings: with Saccharomyces cerevisiae carrying the variant on a plasmid
Protocol: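 Pooled growth of yeast carrying single-residue variants of P. jirovecii dihydrofolate reductase (own DFR1 gene intact), two passages at 30 °C, three cultures, sequenced before and after. Codons with under 15 starting reads are left out; codons of one change are averaged.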

Row | Variant | selection coefficient against synonymous wild-type codons (log2) (methotrexate 8.8 µM) | selection coefficient against synonymous wild-type codons (log2) (methotrexate 44 µM)
1 | MDWQKSLTLIVALTLSRGIGLKNDLPWKLKSDMMFFSRVTSGLLVTRSTGQMNVVLMGRKTWESLPAHSRPLKNRINVVISRQEVLDLGGGAYHARSLDDALALLSQIYDSTSKIQLNRVFVIGGGELCKAAMEHSRLNRIIATVIHMEVDCDVFFPIDFRSSQSCLPWRKQDHSVLEAWVGSKVPQGKINENGFIYEFEMWIRDI [N148M] | -0.223 ± 0.05 | -0.333 ± 0.16
2 | MDWQKSLTLIVALTLSRGIGLKNDLPWKLKSDMMFFSRVTSGLLVTRSTGQMNVVLMGRKTWESLPAHSRPLKNRINVVISRQEVLDLGGGAYHARSLDDALALLSQIYDSTSKIQLNRVFVIGGGELCKAAMEHSRLNRIIATVIHPEVDCDVFFPIDFRSSQSCLPWRKQDHSVLEAWVGSKVPQGKINENGFIYEFEMWIRDI [N148P] | 0.0618 ± 0.085 | 0.0938 ± 0.36
3 | MDWQKSLTLIVALTLSRGIGLKNDLPWKLKSDMMFFSRVTSGLLVTRSTGQMNVVLMGRKTWESLPAHSRPLKNRINVVISRQEVLDLGGGAYHARSLDDALALLSQIYDSTSKIQLNRVFVIGGGELCKAAMEHSRLNRIIATVIHQEVDCDVFFPIDFRSSQSCLPWRKQDHSVLEAWVGSKVPQGKINENGFIYEFEMWIRDI [N148Q] | -0.0245 ± 0.036 | -0.0514 ± 0.065
4 | MDWQKSLTLIVALTLSRGIGLKNDLPWKLKSDMMFFSRVTSGLLVTRSTGQMNVVLMGRKTWESLPAHSRPLKNRINVVISRQEVLDLGGGAYHARSLDDALALLSQIYDSTSKIQLNRVFVIGGGELCKAAMEHSRLNRIIATVIHREVDCDVFFPIDFRSSQSCLPWRKQDHSVLEAWVGSKVPQGKINENGFIYEFEMWIRDI [N148R] | -0.053 ± 0.043 | -0.167 ± 0.14
5 | MDWQKSLTLIVALTLSRGIGLKNDLPWKLKSDMMFFSRVTSGLLVTRSTGQMNVVLMGRKTWESLPAHSRPLKNRINVVISRQEVLDLGGGAYHARSLDDALALLSQIYDSTSKIQLNRVFVIGGGELCKAAMEHSRLNRIIATVIHSEVDCDVFFPIDFRSSQSCLPWRKQDHSVLEAWVGSKVPQGKINENGFIYEFEMWIRDI [N148S] | 0.0688 ± 0.078 | 0.11 ± 0.28
6 | MDWQKSLTLIVALTLSRGIGLKNDLPWKLKSDMMFFSRVTSGLLVTRSTGQMNVVLMGRKTWESLPAHSRPLKNRINVVISRQEVLDLGGGAYHARSLDDALALLSQIYDSTSKIQLNRVFVIGGGELCKAAMEHSRLNRIIATVIHTEVDCDVFFPIDFRSSQSCLPWRKQDHSVLEAWVGSKVPQGKINENGFIYEFEMWIRDI [N148T] | -0.0372 ± 0.039 | -0.151 ± 0.1
7 | MDWQKSLTLIVALTLSRGIGLKNDLPWKLKSDMMFFSRVTSGLLVTRSTGQMNVVLMGRKTWESLPAHSRPLKNRINVVISRQEVLDLGGGAYHARSLDDALALLSQIYDSTSKIQLNRVFVIGGGELCKAAMEHSRLNRIIATVIHVEVDCDVFFPIDFRSSQSCLPWRKQDHSVLEAWVGSKVPQGKINENGFIYEFEMWIRDI [N148V] | -0.297 ± 0.025 | -0.235 ± 0.098
8 | MDWQKSLTLIVALTLSRGIGLKNDLPWKLKSDMMFFSRVTSGLLVTRSTGQMNVVLMGRKTWESLPAHSRPLKNRINVVISRQEVLDLGGGAYHARSLDDALALLSQIYDSTSKIQLNRVFVIGGGELCKAAMEHSRLNRIIATVIHWEVDCDVFFPIDFRSSQSCLPWRKQDHSVLEAWVGSKVPQGKINENGFIYEFEMWIRDI [N148W] | -0.197 ± 0.0087 | -0.245 ± 0.096
9 | MDWQKSLTLIVALTLSRGIGLKNDLPWKLKSDMMFFSRVTSGLLVTRSTGQMNVVLMGRKTWESLPAHSRPLKNRINVVISRQEVLDLGGGAYHARSLDDALALLSQIYDSTSKIQLNRVFVIGGGELCKAAMEHSRLNRIIATVIHYEVDCDVFFPIDFRSSQSCLPWRKQDHSVLEAWVGSKVPQGKINENGFIYEFEMWIRDI [N148Y] | -0.13 ± 0.034 | -0.228 ± 0.096
10 | MDWQKSLTLIVALTLSRGIGLKNDLPWKLKSDMMFFSRVTSGLLVTRSTGQMNVVLMGRKTWESLPAHSRPLKNRINVVISRQEVLDLGGGAYHARSLDDALALLSQIYDSTSKIQLNRVFVIGGGELCKAAMEHSRLNRIIATVIHNAVDCDVFFPIDFRSSQSCLPWRKQDHSVLEAWVGSKVPQGKINENGFIYEFEMWIRDI [E149A] | -0.122 ± 0.059 | -0.231 ± 0.061
11 | MDWQKSLTLIVALTLSRGIGLKNDLPWKLKSDMMFFSRVTSGLLVTRSTGQMNVVLMGRKTWESLPAHSRPLKNRINVVISRQEVLDLGGGAYHARSLDDALALLSQIYDSTSKIQLNRVFVIGGGELCKAAMEHSRLNRIIATVIHNCVDCDVFFPIDFRSSQSCLPWRKQDHSVLEAWVGSKVPQGKINENGFIYEFEMWIRDI [E149C] | -0.303 ± 0.11 | -0.348 ± 0.099
12 | MDWQKSLTLIVALTLSRGIGLKNDLPWKLKSDMMFFSRVTSGLLVTRSTGQMNVVLMGRKTWESLPAHSRPLKNRINVVISRQEVLDLGGGAYHARSLDDALALLSQIYDSTSKIQLNRVFVIGGGELCKAAMEHSRLNRIIATVIHNDVDCDVFFPIDFRSSQSCLPWRKQDHSVLEAWVGSKVPQGKINENGFIYEFEMWIRDI [E149D] | 0.0287 ± 0.034 | 0.0616 ± 0.063
13 | MDWQKSLTLIVALTLSRGIGLKNDLPWKLKSDMMFFSRVTSGLLVTRSTGQMNVVLMGRKTWESLPAHSRPLKNRINVVISRQEVLDLGGGAYHARSLDDALALLSQIYDSTSKIQLNRVFVIGGGELCKAAMEHSRLNRIIATVIHNFVDCDVFFPIDFRSSQSCLPWRKQDHSVLEAWVGSKVPQGKINENGFIYEFEMWIRDI [E149F] | -0.422 ± 0.22 | -0.282 ± 0.11
14 | MDWQKSLTLIVALTLSRGIGLKNDLPWKLKSDMMFFSRVTSGLLVTRSTGQMNVVLMGRKTWESLPAHSRPLKNRINVVISRQEVLDLGGGAYHARSLDDALALLSQIYDSTSKIQLNRVFVIGGGELCKAAMEHSRLNRIIATVIHNGVDCDVFFPIDFRSSQSCLPWRKQDHSVLEAWVGSKVPQGKINENGFIYEFEMWIRDI [E149G] | 0.0182 ± 0.043 | -0.131 ± 0.16
15 | MDWQKSLTLIVALTLSRGIGLKNDLPWKLKSDMMFFSRVTSGLLVTRSTGQMNVVLMGRKTWESLPAHSRPLKNRINVVISRQEVLDLGGGAYHARSLDDALALLSQIYDSTSKIQLNRVFVIGGGELCKAAMEHSRLNRIIATVIHNHVDCDVFFPIDFRSSQSCLPWRKQDHSVLEAWVGSKVPQGKINENGFIYEFEMWIRDI [E149H] | -0.138 ± 0.092 | -0.134 ± 0.061

Source: the supplement of paper PMC11125491
